Assays:
MDA-MB-468 cells [1] = assay: Confocal/fluorescent microscopy of cetuximab with MFC or M4FC; assay type: cell-based; conditions: co-incubated with cetuximab
MDA-MB-468 cells [2] = assay: FACS binding of meditopes to MDA-MB-468 cells pre-treated with cetuximab or M425; assay type: cell-based
[3] = system: HER2-paGFP in MDA-MB-468 cells; assay: PC-PALM super-resolution imaging of HER2-paGFP distribution; assay type: cell-based; conditions: 10 nM meditope-enabled Trastuzumab v2.0 10 min
cell surface antigen = assay: Binding of tetravalent meditope-Fc via meditope enabled antibody bound to cell surface antigen; assay type: cell-based
Source text: In some embodiments, each or one or more of the above tetravalent and bivalent constructs are shown to bind, e.g., with high affinity via meditope enabled antibody bound to cell surface antigen.

M4FC storage stability = assay type: physicochemical; conditions: 4° C.
Experimental: For long-term storage, the protein was flash-frozen in small aliquots and stored at −80° C. Thawed M4FC was re-sized to remove aggregates.

HL-60 cells = assay: pHrodo-labeled antibody internalization, fluorescence microscopy, HL-60; assay type: cell-based, human; conditions: 100 nM antibody with or without 100 nM meditope-Fc, 30 minutes, 37° C., n=9
Experimental: Meditope-enabled gemtuzumab antibodies were labeled with pHrodo™ Red SE (ThermoFisher Scientific, Waltham, Mass.) according to manufacturer's instructions. The pHrodo™ dye is pH sensitive; its fluorescence increases as pH decreases. Thus, quantifying the fluorescence of pHrodo™-labeled antibodies indicates the rates of antibody endocytosis. Briefly, pHrodo™ was prepared in dry dimethylsulfoxide (DMSO) (Invitrogen) to achieve a final concentration of 2-5 μM of dye. 2 mg of antibody was dissolved in 2 mL of phosphate buffered saline (PBS) at pH 9. Fluorescent probe was then added slowly in four 50 ul increments to the antibody solution and incubated with each addition for 15 minutes with rocking at room temperature. […]
HL-60 cells, a human promyelocytic leukemia cell line were stained for fluorescence microscopy to determine receptor-mediated endocytosis rates of the pHrodo™-labeled antibody. […]
At the appropriate time points, coverslips were washed in ice-cold BSA/PBS before fixation in 4% paraformaldehyde (PFA). […] Z sectioning permitted visualization of the internalized materials and all quantitative measurements were taken at the same defined section height. Total fluorescence of each stain inside and outside of imaged cells (n=9) were calculated using ImageJ analysis at a single time point of 30 minutes. Total staining for gemtuzumab alone was calculated as 6604.57±463.95.

cetuximab IgG = assay: SPR binding kinetics of monovalent and tetravalent meditopes to cetuximab; conditions: avidin saturated with biotinylated meditope passed over immobilized cetuximab IgG, versus monovalent meditope
Source text: The panel above the surface plasmon resonance traces depicts a cartoon of the monovalent meditopes being passed over the bivalent IgG. […] The off-rate of the multivalent meditope was reduced by at least 36 fold. (Note the time scales between the two experiments are different.)
In one embodiment, the multivalent meditope tethering entity is a tetravalent meditope tethering agent. In one aspect, the tetrameric tethering entity is shown by surface plasmon resonance to have enhanced binding to an antibody as compared to the monovalent peptide, which is consistent with a multivalent interaction. […] Such binding affinities can be determined using well-known methods, e.g., by FACS analysis.

B1: meditope-Fc: meditope fused to N-terminus of human IgG Fc via 37-residue linker; bivalent; SEQ ID NO: 57 (protein)
chain: GCQFDLSTRRLRCGGSRSGGTSGGGSVPGSGSSGSTSGSGKSSEGSGQ[human IgG1 Fc and a few adjoining residues not written out]
persistence of meditope signal in cells (MDA-MB-468 cells [1]): observed even following overnight incubation
binding signal after washing (FACS) (MDA-MB-468 cells [2]; cetuximab pre-treated MDA-MB-468 cells, after wash): remained bound despite an extensive washing procedure
binding to cells (FACS) (MDA-MB-468 cells [2]; with or without cetuximab or M425 pre-treatment): did not bind to untreated cells or cells pre-treated with M425

B2: M4FC: tetravalent meditope-Fc having the amino acid sequence of SEQ ID NO: 58 (protein)
chain: GCQFDLSTRRLRCGGSRSGGTSGTGSTSGSGSSGSTSGSGKSSEGSGQAS[human IgG1 Fc and a few adjoining residues not written out]GGSRSGGTSSSSSGSGSGSSGSTSGSGSSGCQFDLSTRRLRCG
HER2-paGFP density ([3]; then 10 nM M4Fc for 3 minutes): 196±41 molecules/μm^2
HER2-paGFP density ([3]; then 10 nM M4Fc for 10 minutes): 41±8 molecules/μm^2
binding (cell surface antigen): bind with high affinity
storage stability (M4FC storage stability): stable at 4 °C at most for one month
incubation time after which meditope became barely detectable (MDA-MB-468 cells [1]): more than 3.5 h
time at which internalization was observed (MDA-MB-468 cells [1]; as early as): 20 min

B3: gemtuzumab: Meditope-enabled gemtuzumab, light chain SEQ ID NO: 224, heavy chain SEQ ID NO: 225, pHrodo Red labeled (protein)
light: QIVLTQSPAIMSASPGEKVTITCSASSSISYMHWFQQRTNGSPRLWIYTTSNLASGVPARFSGSGSGTSYSLTISRMEAEDEADYYCHQRSTYPLTFGAGTKLELKRTVAAPSVFIFPPSDEQLKSGTASVVCLLNNFYPREAKVQWKVDNALQSGNSQESVTEQDSKDSTYSLSSTLTLSKADYEKHKVYACEVTHQGLSSPVTKSFNRGEC
heavy: QVQLQQSGAELAKPGASVKMSCKASGYTFTSYRMHWVKQSPGQGLEWIGYINPSTGYTEYNQKFKDKATLTADKSSSTAYMQLSSLTFEDSAIYYCARGGGVFDYWGQGTTLTVSS[human IgG1 constant region not written out]
modifications: pHrodo Red label; (1)..(213) MB-004-107 Gemtuzumab enabled antibody, light chain; (1)..(446) MB-004-107 Gemtuzumab enabled antibody, heavy chain
total staining (total fluorescence, ImageJ) (HL-60 cells): 6604.57±463.95

B4: tetravalent meditope: avidin saturated with biotinylated meditope (FIG. 4) (conjugate)
chain: GCQFDLSTRRLRCGGSRSGGTSGTGSTSGSGSSGSTSGSGKSSEGSGQAS[human IgG1 Fc and a few adjoining residues not written out]GGSRSGGTSSSSSGSGSGSSGSTSGSGSSGCQFDLSTRRLRCG
off-rate reduction of the multivalent meditope (cetuximab IgG): at least 36 fold

Source: patent US20180148514A1, “MULTIVALENT MEDITOPES, MEDITOPE-BINDING ANTIBODIES AND USES THEREOF” (City of Hope, priority 2014, published 2018)
